Measured values as given in PubChem BioAssay (Tox21).
“And” between values parts separate entries of the source, which are not always exact repeats. Equal entries are not always repeated. Inconclusive results, whose numbers are uncertain, are shown with a selection of clear calls. Potencies of inconclusive entries are doubtful fits and often do not repeat. The source made the active and inactive calls. The call rests on the fitted dose curve; in most records, active means well fitted cell-killing curve with a large enough effect in the repeat runs; inconclusive means weak or mixed curves, or effect the other way; inactive means no such curve, though single readings can be large or run the other way.

test: qHTS assay to identify small molecule antagonists of the vitamin D receptor (VDR) signaling pathway - cell viability counter screen (AID 743225); conditions: VDR-bla HEK293T viability, CellTiter-Glo luminescence, 16 h; at 61 µM (top of the series); further: nearly all actives have a fitted effect of over 50% in size
Description: U.S. Tox21 Program National Center for Advancing Translational Sciences [NCATS] NIH Chemical Genomics Center [NCGC] U.S. Environmental Protection Agency [EPA] National Institutes of Environmental Health Sciences [NIEHS] National Toxicology Program [NTP] U.S. Food and Drug Administration [FDA] Tox21 Assay Overview: The vitamin D receptor (VDR), a member of nuclear hormone receptor superfamily, plays a critical role in calcium homeostasis and bone metabolism. It is also involved in cell differentiation and growth, and thrombogenicity. To identify the compounds that inhibit VDR signaling, the VDR-UAS-bla HEK 293T cell line (Invitrogen, Carlsbad, CA, USA) containing a beta-lactamase reporter gene under the control of an upstream activator sequence (UAS) was used to screen the Tox21 10K compound library. The cytotoxicity of the Tox21 compound library against the VDR-bla cell line was tested in parallel by measuring the cell viability using CellTiter-Glo assay (Promega, Madison, WI) in the same wells.
Tox21 Assay Protocol Summary: VDR-bla cells were dispensed at 2,000 cells/5 uL of assay medium per well into black wall/clear-bottom 1536-well plates using a Multidrop Combi (Thermo Fisher Scientific, Waltham, MA) dispenser. After the assay plates were incubated at a 37C and 5% CO2 for 4 h, 23 nL of compounds dissolved in DMSO, positive controls or DMSO only was transferred to the assay plate by a Pintool station (Kalypsys, San Diego, CA), followed by addition of 1 uL of 1-alpha, 25-Dihydroxy Vitamin D3 (3 nM, final concentration in the wells) using a Bioraptr Flying Reagent Dispenser (FRD) workstation (Beckman Coulter, Indianapolis, IN). The plates were incubated at 37C and 5% CO2 for 16 h, and then 1 uL of LiveBLAzerTM B/G FRET substrate was added using a Bioraptr FRD. The plates were incubated at room temperature for 2 h and fluorescence intensity was measured by an Envision plate reader (PerkinElmer, Shelton, CT). For cell viability readout that measures cytotoxicity, 3 ul/well of CellTiter-Glo reagent was added into the assay plates using a Bioraptr FRD. After 30 min incubation at room temperature, the luminescence intensity in the plates was measured using a ViewLux plate reader (PerkinElmer).
On the % scale 0 is the no-effect control and ±100 the full control effect; potency means the concentration at half of the fitted maximal effect; tags describe the fitted curve by direction and shape.

| Compound | viability change, negative = cytotoxic |
| --- | --- |
| CC(C)=CCC/C(C)=C\CO | inactive: 12.8% |

same assay, conditions: VDR-bla HEK293T viability, CellTiter-Glo luminescence, 16 h; viability change, negative = cytotoxic: at 61 µM (top of the series) unless noted

| Compound | Potency | viability change, negative = cytotoxic |
| --- | --- | --- |
| S=c1[nH]c2ccccc2s1 | inconclusive: 21.9 µM [cytotoxic, single point] | – |
| CCOC(=O)c1ccccc1C | – | inconclusive: -30.7% [cytotoxic] |
| CCCCCCCCCCCCCC[n+]1ccccc1 | active: 24.5 µM | – |
| Cc1ccc2c(Br)cc(Br)c(O)c2n1 | inconclusive: 26.8 µM [cytotoxic] | – |
| CCCCCCOC(C)=O | inconclusive: 0.49 µM [cytotoxic, full curve, poor fit] | – |
| COc1cc(O)c(C(=O)c2ccccc2)cc1S(=O)(=O)O | inconclusive: 1.11 µM [cytotoxic, single point] | – |
| COc1cccc(N)c1 | inconclusive: 22 µM [cytotoxic, partial curve, poor fit] | – |
| CC(C)=CCC/C(C)=C\CO | – | inconclusive: -14.8% [cytotoxic] [at 78.8 µM] |
| COc1ccc(OC(F)(F)F)cc1CN[C@H]1CCCN[C@H]1c1ccccc1 | active: 49 µM | – |
| CN(C)CCCN1c2ccccc2Sc2ccc(C(F)(F)F)cc21 | – | inconclusive: -34.5% [cytotoxic] |
| Oc1cccc(-c2c3nc(c(-c4cccc(O)c4)c4ccc([nH]4)c(-c4cccc(O)c4)c4nc(c(-c5cccc(O)c5)c5ccc2[nH]5)CC4)C=C3)c1 | inconclusive: 26.8 µM [cytotoxic, single point] | – |
| CC(C)c1ccc2c(c1)CC[C@H]1[C@](C)(CN)CCC[C@]21C | active: 43.6 µM | – |
| O=c1c(O)c(-c2ccc(O)cc2O)oc2cc(O)cc(O)c12 | – | inactive: 12.5% |
| CCCCN(CCCC)CCC(O)c1cc2c(Cl)cc(Cl)cc2c2cc(C(F)(F)F)ccc12 (stereo not given) | inconclusive: 21.3 µM [cytotoxic, partial curve] | – |
| CC(C)OC(=O)c1cc(C(=O)OC(C)C)cc([N+](=O)[O-])c1 | – | inconclusive: -31.7% [cytotoxic] [at 78.8 µM] |
| CCOCCOCCO | inconclusive: 0.356 µM [cytotoxic, full curve, poor fit] | – |
| CCN(CC)CCCN(c1ccccc1)C1Cc2ccccc2C1 | inconclusive: 26.8 µM [cytotoxic, single point] | – |
| C#C[C@]1(O)CC[C@H]2[C@@H]3CCC4=Cc5oncc5C[C@]4(C)[C@H]3CC[C@@]21C | inconclusive: 54.9 µM [cytotoxic, single point] | – |
| CC(C)(C)C1CCC(CC2=C(O)c3ccccc3C(=O)C2=O)CC1 (stereo not given) | inconclusive: 2.13 µM [cytotoxic, full curve] | – |
| COC(=O)CCCC(=O)OC | inconclusive: 1.93 µM [cytotoxic, single point] and inactive | – |

| Compound | Potency | viability change, negative = cytotoxic |
| --- | --- | --- |
| OCCN1CCN(CCCN2c3ccccc3Sc3ccc(Cl)cc32)CC1 | active: 23.9 µM | – |
| Cc1cc(O)c(C)c(C)c1O | inconclusive: 10.7 µM [cytotoxic, single point] | – |
| Nc1nc2ccc([N+](=O)[O-])cc2s1 | inconclusive: 0.49 µM [cytotoxic] | – |
| CCCCCCCC[N+](CCCCCCCC)(CCCCCCCC)CCCCCCCC | active: 7.75 µM | – |
| COc1ccccc1NC(=O)c1cc2ccccc2cc1O | active: 38.9 µM | – |
| Oc1ccc(C(c2ccc(O)cc2)C(Cl)(Cl)Cl)cc1 | inconclusive: 17.3 µM [cytotoxic, partial curve, poor fit] and inconclusive: 61.6 µM [cytotoxic, single point] | – |
| O=c1cc(-c2ccccc2)oc2ccc3ccccc3c12 | inconclusive: 17.4 µM [cytotoxic, full curve] | – |
| [Cl][In]([Cl])[Cl] | inconclusive: 0.49 µM [cytotoxic, single point] | – |
| CCCCCCCCS(=O)C(C)Cc1ccc2c(c1)OCO2 (stereo not given) | active: 44.5 µM | – |
| O=C(O)Cc1ccccc1Oc1ccc(Cl)cc1Cl | inconclusive: 0.0477 µM [rising, partial curve, poor fit] | – |
| CC(C(O)c1ccccc1)N(C)CCOC(c1ccccc1)c1ccccc1 (stereo not given) | inconclusive: 21.3 µM [cytotoxic, partial curve, poor fit] | – |
| CCC(C(=O)NC(N)=O)c1ccccc1 (stereo not given) | inconclusive: 61.6 µM [cytotoxic, single point] | – |
| O=C(O)Cc1cn(-c2ccccc2)nc1-c1ccc(Cl)cc1 | – | inactive: -3.89% |
| C=C(C)CCCC(C)CCO (stereo not given) | inconclusive: 61.6 µM [cytotoxic, single point] | – |
| CCCOc1ccc2nc(NC(=O)OC)[nH]c2c1 | – | inactive: 10.3% |
| CCCCCCCC[P+](CCCCCCCC)(CCCCCCCC)CCCCCCCC | active: 13.7 µM | – |
| CC(=O)[C@H]1CC[C@H]2[C@@H]3CCC4=CC(=O)CC[C@]4(C)[C@H]3CC[C@]12C | inconclusive: 48.7 µM [cytotoxic] and inconclusive: 43.6 µM [cytotoxic, partial curve, poor fit] | – |
| C/C=C/C=C/COC(=O)C(C)C | – | inactive: -13% |
| CN1CCN(c2cc3c(cc2F)c(=O)c(C(=O)O)cn3-c2ccc(F)cc2)CC1 | inconclusive: 0.0017 µM [rising, full curve] | – |
